Whole data set: some 81,000 sequences, median “one-hybrid fitness for binding parS DNA” near -0.17, cut for the highest 2% near 0.51. Some of the results follow.
B1: Caulobacter ParB omega fusion; a variant is named by its letters at X, in order, B8GW30 (parent)
chain: MESVVVGEPGMSEGRRGLGRGLSALLGEVDAAPAQAPGEQLGGSREAPIEILQRNPDQPRRTFREEDLEDLSNSIREKGVLQPILVRPSPDTAGEYQIVAGERAWRAAQRAGLKTVPIMVRELDDLAVLEIGIIENVQRADLNVLEEALSYKVLMEKFERTQENIAQTIGKSXSHVANXMRLLXLPDEVQSYLVSGELTAXHARAIAAAADPVALAKQIIEGGLSVRETEALARKAPNLSAGKSKGGRPPRVKDTDTQALESDLSSVLGLDVSIDHRGSTGTLTITYATLEQLDDLCNRLTRGI

Variants of: B1
Assay: one-hybrid fitness for binding parS DNA (scaled: cognate 1, non-cognate 0); higher = stronger binding
Conditions: with parS DNA site
Outline: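 Values were rescaled so that cognate is 1 and non-cognate is 0. Each is a fitness, the log change in a variant's read ratio to wild type from Illumina reads of plasmids before and after selection, with three replicate libraries pooled and variants under 10 reads dropped. Selection of the Caulobacter ParB libraries, four specificity codons randomised, used E. coli USO with a HIS3 reporter, site 19 bp from the promoter, on M9-minus-histidine with 0.1 mM IPTG and 5 mM 3-AT for 48 hours at 37°C.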

| Variant | one-hybrid fitness for binding parS DNA |
| --- | --- |
| KTDS | ≤ 0.2 |
| QMLL | ≤ 0.2 |
| DRKH | ≤ 0.2 |
| NRHL | ≤ 0.2 |
| KWAC | ≤ 0.2 |
| PTLW | ≤ 0.2 |
| TMSK | ≤ 0.2 |
| QQAQ | 0.324 |
| SLRG | ≤ 0.2 |
| GLYH | ≤ 0.2 |
| IYSP | ≤ 0.2 |
| PDKS | ≤ 0.2 |
| NKTR | ≤ 0.2 |
| VRAN | ≤ 0.2 |
| MTGV | ≤ 0.2 |
| IPQS | ≤ 0.2 |
| RYMP | ≤ 0.2 |
| EIKT | ≤ 0.2 |
| RPFI | ≤ 0.2 |
| LCTV | ≤ 0.2 |
| QDTR | ≤ 0.2 |
| YGVD | ≤ 0.2 |
| AFIR | ≤ 0.2 |
| VLIS | ≤ 0.2 |
| YHPI | ≤ 0.2 |

| Variant | one-hybrid fitness for binding parS DNA |
| --- | --- |
| QCMY | ≤ 0.2 |
| IINS | ≤ 0.2 |
| MERM | ≤ 0.2 |
| WFSL | ≤ 0.2 |
| PWPM | ≤ 0.2 |
| MHDS | ≤ 0.2 |
| EQFS | ≤ 0.2 |
| SDKY | ≤ 0.2 |
| ESEG | ≤ 0.2 |
| MCGW | ≤ 0.2 |
| PFRK | ≤ 0.2 |
| SNHW | ≤ 0.2 |
| SYTC | ≤ 0.2 |
| MMMF | ≤ 0.2 |
| RYVS | 0.976 |
| RKTI | ≤ 0.2 |
| SFRH | ≤ 0.2 |
| TEAN | ≤ 0.2 |
| VVSF | ≤ 0.2 |
| WWSS | ≤ 0.2 |
| WIWV | ≤ 0.2 |
| RMHH | 0.274 |
| QPGK | ≤ 0.2 |
| QAIS | ≤ 0.2 |
| RRDN | 0.257 |

| Variant | one-hybrid fitness for binding parS DNA |
| --- | --- |
| PGSD | ≤ 0.2 |
| HKRL | ≤ 0.2 |
| EPTG | ≤ 0.2 |
| GLTI | ≤ 0.2 |
| LHNP | ≤ 0.2 |
| GQDQ | ≤ 0.2 |
| TVIR | ≤ 0.2 |
| GMEL | ≤ 0.2 |
| INNR | ≤ 0.2 |
| IPPL | ≤ 0.2 |
| VLHL | ≤ 0.2 |
| DSHT | ≤ 0.2 |
| ACGI | ≤ 0.2 |
| RYFA | 0.573 |
| RQSS | 0.979 |
| LMNS | ≤ 0.2 |
| HTQE | ≤ 0.2 |
| SPMF | ≤ 0.2 |
| NSYN | ≤ 0.2 |
| AEFL | ≤ 0.2 |
| VQKR | ≤ 0.2 |
| SYSP | ≤ 0.2 |
| LWVW | ≤ 0.2 |
| FTRC | ≤ 0.2 |
| RAIY | 0.36 |

| Variant | one-hybrid fitness for binding parS DNA |
| --- | --- |
| AYML | ≤ 0.2 |
| PRYW | ≤ 0.2 |
| YMHR | ≤ 0.2 |
| HNPS | ≤ 0.2 |
| KIPY | ≤ 0.2 |
| RAWR | ≤ 0.2 |
| DAYR | ≤ 0.2 |
| TQCI | ≤ 0.2 |
| KCTS | ≤ 0.2 |
| MKRR | ≤ 0.2 |
| WFRS | ≤ 0.2 |
| KRNE | ≤ 0.2 |
| PTCE | ≤ 0.2 |
| WHMR | ≤ 0.2 |
| AGDA | ≤ 0.2 |
| QLFT | ≤ 0.2 |
| QSPV | ≤ 0.2 |
| DQLT | ≤ 0.2 |
| VEAC | ≤ 0.2 |
| MEPY | ≤ 0.2 |
| PFSC | ≤ 0.2 |
| TFAI | ≤ 0.2 |
| TNAG | ≤ 0.2 |
| YPRM | ≤ 0.2 |
| MYGR | ≤ 0.2 |

| Variant | one-hybrid fitness for binding parS DNA |
| --- | --- |
| VWSN | ≤ 0.2 |
| YTTC | ≤ 0.2 |
| IARE | ≤ 0.2 |
| SKVQ | ≤ 0.2 |
| SPNV | ≤ 0.2 |
| VKQS | ≤ 0.2 |
| AHVE | ≤ 0.2 |
| FHTC | ≤ 0.2 |
| GPMQ | ≤ 0.2 |
| QPWT | ≤ 0.2 |
| SHVV | ≤ 0.2 |
| YDSA | ≤ 0.2 |
| PDLD | ≤ 0.2 |
| QMEV | ≤ 0.2 |
| KGTN | ≤ 0.2 |
| HTAA | ≤ 0.2 |
| QFWF | ≤ 0.2 |
| DGVR | ≤ 0.2 |
| WYYL | ≤ 0.2 |
| LEDG | ≤ 0.2 |
| QQNT | ≤ 0.2 |
| QGAH | ≤ 0.2 |
| NDCS | ≤ 0.2 |
| FQLA | ≤ 0.2 |
| RASQ | ≤ 0.2 |

| Variant | one-hybrid fitness for binding parS DNA |
| --- | --- |
| HSAP | ≤ 0.2 |
| RKAE | ≤ 0.2 |
| IPRS | ≤ 0.2 |
| KKHG | ≤ 0.2 |
| PFTV | ≤ 0.2 |
| LVYI | ≤ 0.2 |
| EFPK | ≤ 0.2 |
| WHTR | ≤ 0.2 |
| GCPK | ≤ 0.2 |
| KHHF | ≤ 0.2 |
| GHCS | ≤ 0.2 |
| GILG | ≤ 0.2 |
| DHGG | ≤ 0.2 |
| VGIT | ≤ 0.2 |
| APNN | ≤ 0.2 |
| PHGT | ≤ 0.2 |
| YHDR | ≤ 0.2 |
| NWTR | ≤ 0.2 |
| LQTA | ≤ 0.2 |
| CVLI | ≤ 0.2 |
| DKAD | ≤ 0.2 |
| PNRG | ≤ 0.2 |
| MGDS | ≤ 0.2 |
| ARHA | ≤ 0.2 |
| LLRF | ≤ 0.2 |

| Variant | one-hybrid fitness for binding parS DNA |
| --- | --- |
| PLSV | ≤ 0.2 |
| TQEC | ≤ 0.2 |
| VRTL | ≤ 0.2 |
| DADM | ≤ 0.2 |
| VRKS | ≤ 0.2 |
| RVTI | ≤ 0.2 |
| GCTS | ≤ 0.2 |
| PSDG | ≤ 0.2 |
| NVEG | ≤ 0.2 |
| LGRQ | ≤ 0.2 |
| CRGV | ≤ 0.2 |
| NAMT | ≤ 0.2 |
| IFCS | ≤ 0.2 |
| RDLW | ≤ 0.2 |
| RCGV | ≤ 0.2 |
| GNQR | ≤ 0.2 |
| NHLT | ≤ 0.2 |
| TMIR | ≤ 0.2 |
| TMQT | ≤ 0.2 |
| MSGR | ≤ 0.2 |
| TFRN | ≤ 0.2 |
| IYDK | ≤ 0.2 |
| SSFF | ≤ 0.2 |
| QSPC | ≤ 0.2 |
| LHRQ | ≤ 0.2 |

| Variant | one-hybrid fitness for binding parS DNA |
| --- | --- |
| MILE | ≤ 0.2 |
| LEQS | ≤ 0.2 |
| NVRM | ≤ 0.2 |
| LAVN | ≤ 0.2 |
| DDCS | ≤ 0.2 |
| FGNS | ≤ 0.2 |
| TYWC | ≤ 0.2 |
| FVRV | ≤ 0.2 |
| WTSG | ≤ 0.2 |
| MMWR | ≤ 0.2 |
| FNFV | ≤ 0.2 |
| ITSV | ≤ 0.2 |
| PEMV | ≤ 0.2 |
| LHRK | ≤ 0.2 |
| PGRH | ≤ 0.2 |
| TCSN | ≤ 0.2 |
| DRMS | ≤ 0.2 |
| WAPI | ≤ 0.2 |
| TDTE | ≤ 0.2 |
| RKHF | ≤ 0.2 |

From a collection of fitness landscapes (doi:10.1016/j.celrep.2020.107928)
